Experimental data: article PMC4336329 (PLoS ONE, 2015)
Out of some 310,000 compounds screened, about 14,000 (4.5%) showed an effect of 50% or more. The effect is printed as a negative number. This is one part of the list.

molecular target: human ether-à-go-go-related gene (hERG) potassium channel (human, UniProt Q12809); test: primary screen, population patch clamp on CHO cells stably expressing hERG
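Note: peak tail current of the secondary pulse compared with the same well before compound.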

Chain of human ether-à-go-go-related gene (hERG) potassium channel (Q12809 whole entry, looked up): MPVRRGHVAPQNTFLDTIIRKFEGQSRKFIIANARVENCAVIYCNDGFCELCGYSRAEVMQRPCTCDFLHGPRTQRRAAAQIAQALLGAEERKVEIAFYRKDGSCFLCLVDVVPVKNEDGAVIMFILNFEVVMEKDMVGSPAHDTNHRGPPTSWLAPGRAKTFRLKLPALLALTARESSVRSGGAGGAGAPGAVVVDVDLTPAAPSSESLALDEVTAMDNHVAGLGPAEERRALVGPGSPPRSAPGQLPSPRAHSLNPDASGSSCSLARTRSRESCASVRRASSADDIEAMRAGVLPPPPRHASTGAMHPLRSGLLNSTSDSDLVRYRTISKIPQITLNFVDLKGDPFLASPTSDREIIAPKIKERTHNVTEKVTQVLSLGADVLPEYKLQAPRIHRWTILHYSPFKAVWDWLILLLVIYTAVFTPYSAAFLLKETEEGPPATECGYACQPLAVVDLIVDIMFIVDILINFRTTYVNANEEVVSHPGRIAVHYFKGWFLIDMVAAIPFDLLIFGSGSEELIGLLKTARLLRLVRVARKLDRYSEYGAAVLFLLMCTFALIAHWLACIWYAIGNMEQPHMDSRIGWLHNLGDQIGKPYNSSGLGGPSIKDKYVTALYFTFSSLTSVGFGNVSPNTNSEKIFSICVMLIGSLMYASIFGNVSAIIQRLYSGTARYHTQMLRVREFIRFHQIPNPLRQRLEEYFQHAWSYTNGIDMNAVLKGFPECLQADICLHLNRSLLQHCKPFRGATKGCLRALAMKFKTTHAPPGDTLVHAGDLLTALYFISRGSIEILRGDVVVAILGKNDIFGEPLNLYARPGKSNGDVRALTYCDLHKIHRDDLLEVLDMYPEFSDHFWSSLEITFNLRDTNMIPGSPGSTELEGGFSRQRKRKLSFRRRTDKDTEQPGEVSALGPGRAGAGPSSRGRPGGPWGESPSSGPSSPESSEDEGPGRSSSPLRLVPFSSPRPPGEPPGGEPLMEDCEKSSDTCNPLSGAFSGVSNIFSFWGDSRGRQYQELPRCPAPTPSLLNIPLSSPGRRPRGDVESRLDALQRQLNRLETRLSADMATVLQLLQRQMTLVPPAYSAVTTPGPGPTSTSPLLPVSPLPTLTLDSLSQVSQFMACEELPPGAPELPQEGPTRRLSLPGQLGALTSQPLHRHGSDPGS

Compound	hERG current change (%, negative = inhibition) at 10uM
Cc1ccc(NC(=O)CCC(=O)NNC(=O)Cc2ccccc2)cc1C	2.51%
Cc1ccc(C)c(S(=O)(=O)Nc2ccccc2C(=O)Nc2ccccc2N2CCOCC2)c1	6.67%
COc1cc(/C=N\NC(=O)Cn2nnc3ccccc32)cc(OC)c1OC	-18.4%
Cc1nnc2c3ccccc3c(Cl)nn12	-10.9%
COc1cccc(Cn2cnc3c(NS(=O)(=O)c4cc(Cl)ccc4Cl)c(C)c(C)cc32)c1	9.84%
COc1ccccc1CNC(=O)c1ccc(CS(=O)(=O)c2ccccc2C)o1	-29.6%
CC(=O)N1CCN(C(=O)c2cc(-c3ccc(Cl)s3)nc3ccccc23)CC1	-51.8%
CC1=CC2=NC(=O)CC(C)(C(=O)N(CC(=O)NC3CCCC3)c3ccccc3F)N2C=C1 (centres unmarked)	29.1%
Cc1ccc(CSc2nnc(-c3ccco3)o2)cc1	-0.292%
CC(=O)c1cc(C#N)c(SCc2ccccc2)nc1C	10.8%
Cc1ccc(NC(=O)COc2coc(CN3c4ccccc4CC3C)cc2=O)c(C)c1 (centres unmarked)	-14.8%
COc1ccc(S(=O)(=O)Nc2cccc(SC)c2)cc1C(=O)N1CCOCC1	8.35%
COc1c(Cl)cc(C(=O)NN)cc1Cl	0.95%
CCOC(=O)C1CCCN(S(=O)(=O)c2ccc(F)c(C(=O)Nc3ccc(F)c(F)c3)c2)C1 (centres unmarked)	-41.9%
COc1ccccc1-n1nnnc1SCC(=O)NC1CCCCC1	-6.72%
Cc1cc(=O)oc2cc(OCC(=O)OCC(=O)Nc3ccccc3C(C)C)ccc12	3.47%
CCCN1CCN(CCCNC(=O)c2ccc3c(c2)NC(=O)c2ccccc2S3)CC1	-10.6%
COc1ccccc1N1CCN(C(=O)c2ccc3c(Cl)c4c(nc3c2)CCCC4)CC1	3.73%
CC1=C([N+](=O)[O-])C(c2ccccc2C(F)(F)F)NC(=O)N1C (centres unmarked)	3.59%
CC/C(=N/Nc1ccccc1C)c1cnnc(SC)n1	9.7%
O=C(C1CCCN(S(=O)(=O)c2cccc3cccnc23)C1)N1CCc2ccccc21 (centres unmarked)	-39.6%
COC(=O)Nc1sc2c(c1C(=O)N1CCOCC1)CCC(C)C2 (centres unmarked)	-7.32%

Compound	hERG current change (%, negative = inhibition) at 10uM
CCc1ccccc1NC(=S)N(CCCN(C)C)Cc1cc2cc3c(cc2[nH]c1=O)OCO3	-19.7%
CCN(C(=O)CCN1C(=O)c2ccccc2C1=O)C1CCCCC1	-1.43%
COc1cc(=O)n2c(-c3ccccc3)csc2n1	7.98%
COc1cccc(C(=O)NC(=O)Nc2nc(C)cc(C(F)(F)F)n2)c1	12%
CC(=O)NC1C(=O)N(Cc2ccccc2)c2ccc(Br)cc21 (centres unmarked)	-7.32%
CCOC(=O)/C(=C\c1ccccc1)NC(=O)c1ccccc1	-1.79%
COc1ccccc1-c1nnc(NC(=O)Cc2ccccc2)o1	10.8%
CCOC(=O)c1ccc(NC(=S)NCc2cccnc2)cc1	12.3%
Cc1ccc(C(=O)NC(=S)Nc2ccccc2C)cc1	-0.104%
CCCc1cc2c(=O)c(-c3ccc4c(c3)OCCO4)c(C)oc2cc1OS(C)(=O)=O	-18.9%
COc1ccc(NC(=O)CN(C)CC(=O)NCc2ccc(C)cc2)cc1	-21.3%
C=CCn1c(SCC(=O)Nc2nc3ccccc3s2)nc(O)c(CC)c1=O	6.88%
NC(=O)C1(N2CCCCC2)CCN(Cc2ccc(Br)cc2)CC1	-51%
COC(=O)CNC(=O)Cc1c(F)cccc1Cl	19.1%
COc1nc(OC/C(N)=N/O)nc(N2CCOCC2)n1	-11.6%
Cc1cc(Oc2ccccc2)nc(SCC(=O)Nc2ccccc2)n1	19.4%
CN(c1ccccc1)S(=O)(=O)c1cccc(NC(=O)CSc2ncc(C(F)(F)F)cc2Cl)c1	15.9%
COC(=O)c1ccc(OCC2NCCc3cc(OC)c(OC)cc32)cc1 (centres unmarked)	3.63%
O=C(CSc1nnc(-c2cccc(F)c2)o1)N1CCCC1	8.92%
Cc1ccc(C(=O)N/N=C/c2ccc(N3CCOCC3)cc2)c(C)c1	26.3%
NC(=O)CCC(NC(=O)c1ccc(Cl)cc1)C(=O)O (centres unmarked)	5.66%
CCN1CCN(C(=O)C2CCN(S(=O)(=O)c3ccc(SC)cc3)CC2)CC1	11.6%
